The source of these data is PMC4336329 (PLoS ONE, 2015).

Among all 310,000 compounds or so, about 2,200 (0.71%) showed an effect of 50% or more. The effect is printed as a negative number. This is one part of the list.

human ether-à-go-go-related gene (hERG) potassium channel, sequence (Q12809 whole entry, looked up): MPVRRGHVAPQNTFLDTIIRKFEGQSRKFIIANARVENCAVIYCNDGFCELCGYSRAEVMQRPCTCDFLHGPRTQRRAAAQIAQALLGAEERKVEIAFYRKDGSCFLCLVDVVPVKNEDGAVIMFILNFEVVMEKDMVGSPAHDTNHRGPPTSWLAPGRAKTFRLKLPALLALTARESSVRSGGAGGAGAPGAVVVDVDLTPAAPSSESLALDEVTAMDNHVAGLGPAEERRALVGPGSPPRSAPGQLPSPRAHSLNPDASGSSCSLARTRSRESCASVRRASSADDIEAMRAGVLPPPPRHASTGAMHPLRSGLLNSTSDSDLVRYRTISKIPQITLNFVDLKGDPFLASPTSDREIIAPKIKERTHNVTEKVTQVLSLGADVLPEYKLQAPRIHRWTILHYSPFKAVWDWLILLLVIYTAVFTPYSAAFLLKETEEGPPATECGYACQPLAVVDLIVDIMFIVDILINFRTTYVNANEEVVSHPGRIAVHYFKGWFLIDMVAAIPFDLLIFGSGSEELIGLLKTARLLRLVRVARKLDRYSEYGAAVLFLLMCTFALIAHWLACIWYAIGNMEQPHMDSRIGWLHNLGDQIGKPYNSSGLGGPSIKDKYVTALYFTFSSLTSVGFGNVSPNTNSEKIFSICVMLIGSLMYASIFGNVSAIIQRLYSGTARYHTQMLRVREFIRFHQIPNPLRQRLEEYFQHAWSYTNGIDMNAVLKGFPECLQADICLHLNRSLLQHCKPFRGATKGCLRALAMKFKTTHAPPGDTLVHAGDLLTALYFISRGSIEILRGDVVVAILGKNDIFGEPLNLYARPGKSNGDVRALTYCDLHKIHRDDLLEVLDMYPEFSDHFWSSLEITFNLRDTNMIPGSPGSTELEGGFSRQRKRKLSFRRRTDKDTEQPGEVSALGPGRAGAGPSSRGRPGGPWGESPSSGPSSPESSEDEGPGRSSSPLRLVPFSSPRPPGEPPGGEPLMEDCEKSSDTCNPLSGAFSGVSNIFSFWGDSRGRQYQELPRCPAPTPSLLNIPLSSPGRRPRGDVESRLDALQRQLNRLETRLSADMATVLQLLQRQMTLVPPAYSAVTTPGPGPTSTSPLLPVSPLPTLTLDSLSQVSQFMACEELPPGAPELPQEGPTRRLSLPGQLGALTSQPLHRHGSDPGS

The assay addresses human ether-à-go-go-related gene (hERG) potassium channel (human, UniProt Q12809). Briefly: primary screen, population patch clamp on CHO cells stably expressing hERG.
In the case of `COc1ccccc1OCC(=O)Nc1cccc(C(=O)N2CCOCC2)c1`, the “hERG current change (%, negative = inhibition) at 1uM” value came to 7.16%.
With `Cc1ccc(S(=O)(=O)N2CCN(C(C(=O)Nc3ccc(F)cc3)c3ccccc3)CC2)cc1` (centres unmarked) the figure was -0.385%; with `O=C(/C=C/c1cccs1)NNC(=O)c1ccccc1`, 15.2%.
As for `CC(C)CCNC(=O)C(c1ccc(O)cc1)N(Cc1cccs1)C(=O)C1COc2ccccc2O1` (centres unmarked), the figure is 7.75%; as for `Cc1ccsc1C(=O)Nc1ccc(S(=O)(=O)N2CCOCC2)cc1`, 8.81%.
With `COc1ccccc1NC(=O)Nc1c(C)nn(C)c1C`, the “hERG current change (%, negative = inhibition) at 1uM” value is reported as 6.28%.
On to `COc1ccc([N+](=O)[O-])cc1N(CC(=O)N(C)C)S(C)(=O)=O`, for which the “hERG current change (%, negative = inhibition) at 1uM” value is on record as 19.1%.
For `COc1ccccc1C1CCN(Cc2c(C)[nH]c3ccccc23)CC1`, the “hERG current change (%, negative = inhibition) at 1uM” value was -11.8%.
With `Cc1cc(SCC(=O)c2cc(C)n(C)c2C)nc2ccccc12`, the “hERG current change (%, negative = inhibition) at 1uM” value came out at 6.43%.
As for `COCC1CCN(Cc2nc(-c3cccs3)no2)C1` (centres unmarked), the figure is 13%; as for `CCOC(=O)c1ccc(CSC(=N)N)o1`, 13.7%.
As for `COc1ccc(CCNc2nc(C)cc(C)n2)cc1OC.Cl`, the figure is 19.2%; as for `CCN(CC)C(=O)CSc1nc2ccccc2c(=O)n1CC1CCCCC1`, -10.4%; as for `COC(=O)C1=C(c2ccc(-c3ccccc3)c(F)c2)C[C@@H]2CC[C@H]1N2C(=O)N1CCC(O)CC1`, 12.5%.
With `O=C(CCC1COc2ccccc2O1)NC1CCCCC1` (centres unmarked) the figure was -5.7%; with `Cl.N=c1n(CCO)c2ccccc2n1Cc1ccccc1`, -0.847%; with `Cc1cccc(C)c1NC(=O)C(=O)NCC1CCCN1S(=O)(=O)c1ccccc1` (centres unmarked), 9.53%.
Regarding `Cc1cc(C)nc(CCNC(=O)C2CCC(=O)N(Cc3ccccc3F)C2)n1` (centres unmarked), the “hERG current change (%, negative = inhibition) at 1uM” value was 18.1%.
As for `C=CCNc1oc(C2CCCC2)nc1C#N`, the “hERG current change (%, negative = inhibition) at 1uM” value is 10.2%.
With `Cc1cccc(Nc2cc(C)c3c(O)cccc3n2)c1C`, the “hERG current change (%, negative = inhibition) at 1uM” value is 5.18%.
As for `Cc1oc(-c2ccccc2F)nc1CS(=O)CC(=O)N1CCC2(CC1)OCCO2` (centres unmarked), the figure is 11.7%; as for `Cc1ccc(C(=O)OCc2nnc(-c3ccccc3)o2)o1`, 8.75%; as for `COC(=O)C(C(=O)Nc1cc(C)on1)C1CCCCCC1` (centres unmarked), 11.3%.
For `CN1CCN(NC(=O)c2ccc(Cl)s2)CC1`, the “hERG current change (%, negative = inhibition) at 1uM” value is 13.7%.
Turning to `COc1ccc(CN2CC(=O)N(c3cc(Cl)ccc3OC)C2=S)cc1OC`, the “hERG current change (%, negative = inhibition) at 1uM” value is on record as 5.57%.
With `CN(CCO)c1nc2c(c(=O)n(Cc3ccc(Cl)cc3)c(=O)n2C)n1C` the figure was 15.7%; with `COc1c(F)c(F)c(C(=O)Nc2ccc3oc(-c4ccncc4)nc3c2)c(F)c1F`, 14%.
On to `COc1ccc(S(=O)(=O)Nc2c(NC3CCCCC3)c3ccccc3oc2=O)cc1`, for which the “hERG current change (%, negative = inhibition) at 1uM” value was -8.73%.
As for `O=c1oc(CCO)cc2ccc(C#Cc3ccsc3)cc12`, the figure is 11.1%.
Take `CCOC(=O)CSc1ccc2nnc(CCNS(=O)(=O)c3ccccc3)n2n1`: the “hERG current change (%, negative = inhibition) at 1uM” value came to 7.83%.
Turning to `COc1ccc(NS(=O)(=O)c2cccc(C(=O)O)c2)cc1`, the “hERG current change (%, negative = inhibition) at 1uM” value was 5.71%.
In the case of `CNC(=O)C(=O)Nc1c(O)c2ccccc2[nH]c1=O`, the “hERG current change (%, negative = inhibition) at 1uM” value came out at 9.54%.
`O=C(Nc1ccncc1)c1ccc2c(c1)S(=O)(=O)c1ccccc1C2=O`: the “hERG current change (%, negative = inhibition) at 1uM” value was 9.37%.
`COCCn1c(SCC(=O)NC(=O)NC(C)C)nc2ccccc21`: the “hERG current change (%, negative = inhibition) at 1uM” value was found to be 8.66%.
Turning to `COc1ccc2cc(C3(C)NC(=O)N(CC(=O)NCc4ccco4)C3=O)ccc2c1` (centres unmarked), the “hERG current change (%, negative = inhibition) at 1uM” value is -2.02%.
With `CCOc1ccc(NC(=O)CN(C)C(=O)c2ccc(N3CCOCC3)c([N+](=O)[O-])c2)cc1OCC`, the “hERG current change (%, negative = inhibition) at 1uM” value is reported as 5.68%.
Turning to `CCC(=NCc1ccccc1)C1=C(O)C(C(=O)OC)C(C)(C)CC1=O` (centres unmarked), the “hERG current change (%, negative = inhibition) at 1uM” value is -3.45%.
With `COc1ccccc1C(=O)NCC(=O)N1CCN(c2ncccn2)CC1`, the “hERG current change (%, negative = inhibition) at 1uM” value worked out at 11.6%.
Consider `CCOC(=O)c1cc(C#N)c(N2CCN(c3ccc(OC)cc3)CC2)[nH]c1=O`, for which the “hERG current change (%, negative = inhibition) at 1uM” value is reported as 3.77%.
Take `COc1cc(OC)c(OC)cc1CNCCc1ccc(OC)c(OC)c1`: the “hERG current change (%, negative = inhibition) at 1uM” value is reported as -0.186%.
Take `COc1ccccc1C(=O)NCC(=O)OC(C)C(=O)N(C)C1CCCCC1` (centres unmarked): the “hERG current change (%, negative = inhibition) at 1uM” value stood at 8.39%.
Regarding `O=C1OC(c2ccc(F)cc2)=C/C1=C\c1ccc([N+](=O)[O-])o1`, the “hERG current change (%, negative = inhibition) at 1uM” value was determined as 13%.
With `O=C(CNC(=O)c1ccccc1)NCC(O)c1ccc([N+](=O)[O-])cc1` (centres unmarked) the figure was 12.2%.
Take `COc1ccccc1NC(=O)C1(c2ccccc2)CCCC1`: the “hERG current change (%, negative = inhibition) at 1uM” value turned out to be 9.54%.
Turning to `C/C(=C\C(=S)Nc1ccccc1)Nc1ccccc1`, the “hERG current change (%, negative = inhibition) at 1uM” value amounted to 19.8%.
For `CN(CC(=O)Nn1cnnc1)S(=O)(=O)c1ccc(Br)cc1`, the “hERG current change (%, negative = inhibition) at 1uM” value came to 1.34%.
For `Cc1cc(Nc2ccccc2C(=O)O)nc2nc3ccccc3c(=O)n12`, the “hERG current change (%, negative = inhibition) at 1uM” value was -2.75%.
`O=C1C2C3C=CC(C3)C2C(=O)N1/N=C/c1cn(Cc2ccc(F)cc2)c2ccccc12` (centres unmarked): the “hERG current change (%, negative = inhibition) at 1uM” value came to 15.7%.
As to `CC/C(=N\NC(=S)NC(C)C)c1ccc(OC(F)F)cc1`, the “hERG current change (%, negative = inhibition) at 1uM” value is -7.25%.
For the compound `CC(=O)OC1CC[C@@]2(C)C(=CC(=O)C3C4CCC(OC(C)=O)[C@@]4(C)CCC32)C1` (some centres unmarked), the “hERG current change (%, negative = inhibition) at 1uM” value stood at 9.68%.
For the compound `Cc1ccc(-n2ncc3c(NCc4ccccc4)ncnc32)cc1`, the “hERG current change (%, negative = inhibition) at 1uM” value came out at 7.45%.
As for `Cc1c(NC(=S)N2CCN(c3cccc(Cl)c3)CC2)c(=O)n(-c2ccccc2)n1C`, the “hERG current change (%, negative = inhibition) at 1uM” value is listed as 9.46%.
Take `Cc1ccc2oc(C(=O)NC3CCS(=O)(=O)C3)cc(=O)c2c1` (centres unmarked): the “hERG current change (%, negative = inhibition) at 1uM” value was 18.6%.
For `COc1ccc(N2C(=O)CC(N(C)CCc3ccc(OC)c(OC)c3)C2=O)cc1` (centres unmarked), the “hERG current change (%, negative = inhibition) at 1uM” value stood at 10.1%.
With `CCOC(=O)c1ccc(NC(=O)Cn2cnc(S(=O)(=O)N3CCCC3)c2)cc1` the figure was 14.8%; with `O=C(CC(=O)N/N=C\c1ccc([N+](=O)[O-])cc1)NCCc1ccccc1`, 0.942%.
As for `CCOc1ccc(NC(=O)CN(C)CC(=O)Nc2cccc(Cl)c2C)cc1OCC`, the figure is 7%; as for `CC(C)(C)c1cc(CCC(=O)N2CCCC2)cc(C(C)(C)C)c1O`, 14.4%; as for `CCOC(=O)C1(CCOc2ccccc2)CCN(Cc2ccc(OC)c(O)c2)CC1`, -88.3%.
Turning to `O=c1c2c(nc3nc(NCc4ccccc4Cl)[nH]n13)CCC2`, the “hERG current change (%, negative = inhibition) at 1uM” value is listed as 14%.
In the case of `Oc1ccc(N2CCN(C(=S)NCc3ccccc3)CC2)cc1`, the “hERG current change (%, negative = inhibition) at 1uM” value was determined as 5.58%.
Turning to `COc1ccc(-c2nc(CS(=O)CC(=O)NCCc3ccc(OC)c(OC)c3)c(C)o2)cc1` (centres unmarked), the “hERG current change (%, negative = inhibition) at 1uM” value stood at 10.3%.
Turning to `CC(C)N(Cc1nccn1C)C(=O)c1ccc2oc(CCCc3ccccc3)nc2c1`, the “hERG current change (%, negative = inhibition) at 1uM” value was -14.9%.
Consider `O=C(COC(=O)/C=C/c1ccccc1Cl)NC(=O)Cc1ccccc1`, for which the “hERG current change (%, negative = inhibition) at 1uM” value worked out at 13.3%.
As for `Cc1ccc(C(=O)COC(=O)CNC(=O)COc2ccccc2C)cc1C`, the “hERG current change (%, negative = inhibition) at 1uM” value came out at 11.1%.
`Fc1ccc(-c2ccc(Nc3cccc(F)c3)nn2)cc1`: the “hERG current change (%, negative = inhibition) at 1uM” value amounted to 10.6%.
On to `Cc1nnc2sc(-c3ccco3)nn12`, for which the “hERG current change (%, negative = inhibition) at 1uM” value came out at 3.89%.
With `Cc1ccccc1CNC(=O)C1CCC(=O)N(C2CCCCCC2)C1` (centres unmarked), the “hERG current change (%, negative = inhibition) at 1uM” value came to 14%.
On to `COc1ccc(CCNC(=O)c2ccc3c(c2)N(Cc2ccc(C)cc2)CCS3)cc1OC`, for which the “hERG current change (%, negative = inhibition) at 1uM” value is reported as 9.85%.
For the compound `CC1(C)C(CC2OCC(CN3CCCCC3)O2)[C@H]2CC[C@@H]1C2` (some centres unmarked), the “hERG current change (%, negative = inhibition) at 1uM” value is recorded as 14.5%.
On to `Cc1onc(-c2ccccc2Cl)c1C(=O)Oc1cccc2cccnc12`, for which the “hERG current change (%, negative = inhibition) at 1uM” value is 11.1%.
As for `Cl.OC1(c2ccc(F)cc2)CCNC1` (centres unmarked), the figure is 16.1%.
With `CC1CCC(N2CCN(S(=O)(=O)Cc3ccccc3)CC2)CC1` (centres unmarked), the “hERG current change (%, negative = inhibition) at 1uM” value was determined as 7.06%.
As for `N#CC1(c2ccccc2)CCCN1C(=O)c1ccccc1Cl` (centres unmarked), the figure is 9.34%; as for `CC(NCc1ccccc1Cl)C(=O)Nc1ccc(C#N)cc1` (centres unmarked), -8.31%; as for `Cn1c(=O)c2c(nc(SCC(=O)Nc3ccccc3)n2C)n(C)c1=O`, 5.83%.
For the compound `COc1ccc(NC(=O)c2cnc(SCC(=O)NCCc3ccccc3)n(C)c2=O)cc1`, the “hERG current change (%, negative = inhibition) at 1uM” value was determined as 11.6%.
As for `CC(C)n1c(O)c(N=Nc2ccc(Cl)nn2)c2ccccc21`, the “hERG current change (%, negative = inhibition) at 1uM” value turned out to be 10.7%.
`O=C(O)Cn1cc(/C=N/Nc2ccc([N+](=O)[O-])cn2)c2ccccc21`: the “hERG current change (%, negative = inhibition) at 1uM” value is reported as 17.5%.
For the compound `Cc1ccc(S(=O)(=O)N2CCN(CC(=O)NC3CCCc4ccccc43)CC2)cc1C.O=C(O)C(=O)O` (centres unmarked), the “hERG current change (%, negative = inhibition) at 1uM” value was 1.77%.
In the case of `CC1Cc2cc(-c3csc(NC(=O)Cc4cccs4)n3)ccc2N1S(C)(=O)=O` (centres unmarked), the “hERG current change (%, negative = inhibition) at 1uM” value amounted to 0.59%.
As to `Cc1cc(=O)oc(C)c1C(=O)NCCCN1CCN(c2ccc(F)cc2)CC1`, the “hERG current change (%, negative = inhibition) at 1uM” value is on record as -29.3%.
As to `CC(=O)NC(CC(=O)NCCc1ccccc1)c1ccccc1` (centres unmarked), the “hERG current change (%, negative = inhibition) at 1uM” value amounted to 10.9%.
As for `Cc1cc(C(C)(C)C)oc1C(=O)NCCCNC(=O)c1oc(C(C)(C)C)cc1C`, the “hERG current change (%, negative = inhibition) at 1uM” value stood at 18.2%.
Take `Cc1cc(C=O)c(C)n1-c1ccc(N2CCOCC2)c([N+](=O)[O-])c1`: the “hERG current change (%, negative = inhibition) at 1uM” value came out at 18%.
In the case of `COc1cccc(CNS(=O)(=O)c2ccc3c(c2)CC(C)N3C(C)=O)c1` (centres unmarked), the “hERG current change (%, negative = inhibition) at 1uM” value is given as 9.31%.
Consider `COc1ccccc1N1CCN(C(=O)c2cc(-c3ccc4c(c3)OCO4)on2)CC1`, for which the “hERG current change (%, negative = inhibition) at 1uM” value was determined as 6.23%.
Turning to `Cc1ccc(C(=O)Nc2nc(-c3ccc([N+](=O)[O-])cc3)cs2)o1`, the “hERG current change (%, negative = inhibition) at 1uM” value amounted to 11.8%.
Consider `COC(=O)c1cccc(NC(=O)c2cccc(OC)c2)c1`, for which the “hERG current change (%, negative = inhibition) at 1uM” value came out at 6.48%.
